Test results as given in the supplement of paper PMC3334620.
The full ranking holds about 33,000 sequences; the median of “E-score (-0.5 to 0.5)” is about -0.035, and the highest 2% start at about 0.35. The list shows a part of the results.

These sequences were tested against T1, Pdr3 (UniProt P33200) (assay: PBM E-score (8-mer binding enrichment) (E-score (-0.5 to 0.5)); higher = stronger / more preferred TF binding; most listed sequences are background and not binding sites). Settings: protein concentration: 200 nM; construct: GST-full length.
T1 sequence: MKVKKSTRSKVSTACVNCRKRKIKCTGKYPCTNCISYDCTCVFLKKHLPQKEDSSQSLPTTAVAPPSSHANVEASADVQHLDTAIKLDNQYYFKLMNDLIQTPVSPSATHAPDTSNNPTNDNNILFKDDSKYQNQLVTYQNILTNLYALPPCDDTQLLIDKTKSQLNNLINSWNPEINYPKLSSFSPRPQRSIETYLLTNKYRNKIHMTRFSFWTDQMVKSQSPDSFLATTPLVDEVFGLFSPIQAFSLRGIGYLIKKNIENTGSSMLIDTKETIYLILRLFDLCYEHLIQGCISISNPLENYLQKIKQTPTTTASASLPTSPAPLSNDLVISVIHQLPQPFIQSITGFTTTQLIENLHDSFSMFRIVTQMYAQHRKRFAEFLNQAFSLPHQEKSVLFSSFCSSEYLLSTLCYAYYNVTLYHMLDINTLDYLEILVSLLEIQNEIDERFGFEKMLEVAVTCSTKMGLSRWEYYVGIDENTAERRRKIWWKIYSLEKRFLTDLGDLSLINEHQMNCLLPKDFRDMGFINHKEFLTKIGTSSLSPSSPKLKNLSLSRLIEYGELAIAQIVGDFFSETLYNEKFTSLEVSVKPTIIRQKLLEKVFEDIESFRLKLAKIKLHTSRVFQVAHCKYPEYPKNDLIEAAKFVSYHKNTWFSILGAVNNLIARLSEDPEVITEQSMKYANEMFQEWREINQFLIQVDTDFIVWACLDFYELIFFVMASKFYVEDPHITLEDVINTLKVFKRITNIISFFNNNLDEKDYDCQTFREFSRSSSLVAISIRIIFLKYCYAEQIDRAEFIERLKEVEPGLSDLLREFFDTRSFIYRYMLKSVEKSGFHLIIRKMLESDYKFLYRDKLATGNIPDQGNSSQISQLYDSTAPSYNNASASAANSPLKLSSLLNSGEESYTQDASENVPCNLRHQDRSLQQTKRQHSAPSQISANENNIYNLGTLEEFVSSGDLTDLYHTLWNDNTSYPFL
In short: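 Masliner-normalised scans of fluorescent anti-GST signal were the basis for scoring. That signal came from GST-tagged yeast transcription factors applied at about 100-200 nM to double-stranded universal all-10-mer Agilent arrays on fresh or once-stripped slides. Each ungapped eight-base word, pooled with its reverse complement, received an E-score from the Universal PBM Analysis Suite.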

Sequence | PBM E-score
TAGAACTA | -0.145
CGGCAATA | 0.0855
AGCCAGGC | -0.0865
CCTACGTA | -0.0731
AAATGGCG | 0.0503
CTGGATCA | -0.163
CGAATTCA | 0.17
AATCTCAT | -0.0242
CTAGGGGA | -0.154
CAGTCACA | -0.16
CCGTCTGC | 0.243
AGCCAAAT | 0.0942
AAATGTCG | -0.114
TATTACAA | -0.115
ACAACGAG | -0.131
ATGCGGTA | 0.0448
TCGTCGCA | 0.00149
CGGAAAGA | 0.428
GAGCTGCC | 0.146
CCAAACTA | 0.0387
AACGAACT | -0.245
GACACTGC | -0.0546
CCATAACC | -0.0883
CACAATCC | 0.0118
AAGGAGCA | 0.0482

Sequence | PBM E-score
CTCGACAG | -0.231
ACTCACGA | -0.107
ATTTTTAG | -0.0807
CTGGTGTC | 0.00867
GTTGTCTA | -0.0319
ATCGACAG | 0.086
CACACAGA | 0.0465
AGCCTAAG | -0.325
TATCGATA | 0.0405
ACCTGGAT | -0.0897
GGAGTAGA | -0.0124
ACGCGTAT | 0.0393
ACTGTCCA | -0.141
CCAAGACG | -0.207
CTTGTCGA | -0.344
AGCTGGTC | -0.142
AACCTATA | -0.0565
CGTCTAAG | -0.0365
AGAGCCAT | -0.117
GCCAGTCC | 0.151
AGACCCCG | 0.305
CTGCACTC | 0.0492
CAGTTCCG | 0.473
AAATTTGG | -0.169
ATAAGCGC | -0.0339

Sequence | PBM E-score
ATGAGTCC | 0.0278
ACTGTTTC | -0.0908
AGCCCGAC | -0.0808
ACCTATCT | -0.0766
GACCCCTA | -0.308
GATCGAGC | 0.159
CCCACGTC | 0.0696
GACAAAGC | 0.103
AATGAGGG | -0.0114
CTTGCACA | -0.203
CGCGGCAG | 0.312
CTTTAATA | 0.056
ACATGCAG | -0.142
CTACCGAG | -0.112
CTAGTGGC | -0.197
AACAGGTA | -0.0621
AATAGGCC | -0.0385
AGACAAAC | -0.147
CGTCGAAC | -0.251
CCACCCGG | 0.359
AACAAACT | -0.0344
ACTCAAAG | -0.118
CAAACGAA | -0.173
AGTGGTCA | -0.0663
ATGAGGTC | -0.076

Sequence | PBM E-score
CCGGATGA | 0.316
AAGCGTGA | -0.0291
AGCAAGCC | -0.0699
CCTCGACC | -0.141
CTCAGCGA | 0.00309
CGCATGTC | -0.0251
GATACATA | 0.101
CACGAGAG | -0.169
AATGGGAT | 0.0112
GACCTGAA | 0.121
CTAATCTC | -0.0806
TCAGCTAA | -0.191
ACACCAGA | -0.0097
AAACGTTA | -0.144
CCAAGGGC | -0.204
CGGAACCG | 0.482
CGTAACCA | -0.0722
CCTTCCCC | -0.014
AATGGACT | -0.158
CTGACTGA | -0.205
TTTAGAAA | -0.193
CGATCTCC | 0.174
CGGTTTAC | -0.0106
AGTCCTGA | -0.159
GCTCTATA | -0.195

Sequence | PBM E-score
CGCGCGAG | 0.211
AGAACAAA | 0.0444
CAGCTAGC | -0.123
AAAGTGGG | -0.039
AATTATAT | 0.177
CTTAAGAC | -0.108
CCGCGTAA | 0.121
ATGCGCTA | -0.0765
TAGTCAAA | -0.249
CATTGAGC | -0.0845
CGATCTTA | -0.0395
CGAAGAGC | 0.132
ACGGTCCT | -0.277
TTACGGAA | 0.419
GTTAGTCA | -0.127
CACGCAAG | -0.0453
ACTGCACC | 0.0857
CGGGGACA | 0.191
ATGATGGG | -0.173
AGTGCCGG | 0.314
AACCGTGT | 0.0441
ACGAGACG | -0.0794
GTTTGCCA | -0.139
AAACCCAT | 0.0748
CACTAAGC | -0.209

Sequence | PBM E-score
AGCTTGAT | -0.151
ATAGCAAG | 0.0243
GCGTCAAC | -0.0938
AAAATCGA | -0.00634
GCGTCTGA | -0.0432
AAAATCCG | 0.272
ATACTATA | 0.0783
CGATGCGC | 0.0922
CGTAAAAG | 0.00583
AACGATAT | 0.0545
CAACTCAA | 0.0122
CTGAGGCA | -0.206
CGTCACGC | -0.0594
AAAACAAA | -0.0167
GCATTTAC | -0.22
AATAGTTG | 0.0675
CCCGATCC | 0.152
CAGAGGTC | -0.03
GAGGGCGA | -0.0395
CTGATTCC | 0.15
AAGCACGA | -0.01
CACGCCAC | -0.201
CGGATTCC | 0.454
AGGTAACC | -0.102
ACACCAAA | -0.00159

Sequence | PBM E-score
GCTGGAAC | 0.0129
GCACGTGC | 0.0474
AAGGCAAG | -0.199
AGGAAGTC | -0.162
AAGTCAGT | 0.0202
AGTAATGA | -0.0717
CGCGCCTC | 0.153
GCCCGACC | -0.043
AGTAGATA | 0.0738
CGAGGAGA | -0.166
ACAGCGCG | 0.0436
ATCTGTGC | -0.164
AGCCCACC | 0.0979
GGGAAAAA | 0.176
ACATTGAT | 0.198
AGTTGCCC | 0.0877
GGCATATA | 0.102
ACCGCTGA | -0.0164
AATAAACA | 0.0464
AGGTGGGA | -0.217
GATCATGC | -0.0268
CTAGGGTA | -0.217
